Compound in assay [1]: T1, CCCCN(CCCC)CC(O)c1cc(Cl)cc2c1-c1ccc(Cl)cc1/C2=C/c1ccc(Cl)cc1 [lumefantrine]
Nature of the assay: slope of the dose-response curve (dimensionless); higher = steeper concentration-effect curve. The protocol:
(§1)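 Hypoxanthine uptake by fresh isolates, duplicate serial dilutions, 24 h of drug plus 18 h after the label; sigmoid fit per isolate.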

Compound in assay [2]: T2, OC(c1cc(C(F)(F)F)nc2c(C(F)(F)F)cccc12)C1CCCCN1 [mefloquine]
The description is as above. The protocol: as §1

Compound in assay [3]: T3, CCN(CC)CCCC(C)Nc1ccnc2cc(Cl)ccc12 [chloroquine]
The description is as above. The protocol:
as §1

Compound in assay [4]: T4, C[C@H]1[C@H](OC(=O)CCC(=O)O)O[C@@H]2O[C@@]3(C)CC[C@H]4[C@H](C)CC[C@@H]1[C@@]24OO3 [artesunate]
The assay is described as above. The protocol:
as §1

Compound in assay [5]: T1, lumefantrine
The protocol:
as §1

Compound in assay [6]: T2, mefloquine
The protocol: as §1

Compound in assay [7]: T3, chloroquine
The protocol: as §1

Compound in assay [8]: T4, artesunate
Here is the method: as §1

Growth of fresh clinical P. falciparum isolates by hypoxanthine uptake over 42 h; for most isolates 1.6-1,647 nM mefloquine, 0.044-87 nM artesunate, 10-10,256 nM chloroquine, 2.4-236 nM lumefantrine. EC50, lower = more sensitive; slope from the same fit, higher = steeper. No active / inactive call. Fits with a coefficient of variation above 100% are not listed here; 15-28% of fits exceed 15%. Isolates are numbered anew.

Regarding “Plasmodium falciparum isolate 156 (pfmdr1 allele: 86N, 1042N, pfmdr1 copies: 2)”, the slope with lumefantrine [1] came to 3.13; in the assay with mefloquine [2], 3.52; with chloroquine [3] it was 2.28; with artesunate [4] it was 8.58. The “EC50 of parasite growth” value with lumefantrine [5] is 107 ng/mL; with mefloquine [6] it was 81.8 ng/mL; with chloroquine [7] it was 49.6 ng/mL; with artesunate [8], 0.874 ng/mL.

Turning to “Plasmodium falciparum isolate 396 (pfmdr1 allele: 86N, 1042N, pfmdr1 copies: 1)”, the slope with lumefantrine [1] was 2.78; with mefloquine [2] it was 2.88; with chloroquine [3], 6.36; in the assay with artesunate [4], 5. The “EC50 of parasite growth” value with lumefantrine [5] is 15.2 ng/mL; in the assay with mefloquine [6], 38.2 ng/mL; with chloroquine [7], 39.8 ng/mL; with artesunate [8] it was 2.25 ng/mL.

For “Plasmodium falciparum isolate 460 (pfmdr1 allele: 86N, 1042N, pfmdr1 copies: 1)”, the slope was 3 with lumefantrine [1], 1.8 with mefloquine [2], 4.57 in the assay with chloroquine [3] and 4.42 in the assay with artesunate [4]. Moreover, the “EC50 of parasite growth” value with lumefantrine [5] was found to be 12.6 ng/mL; with mefloquine [6], 15.7 ng/mL; with chloroquine [7] it was 296 ng/mL; with artesunate [8], 0.422 ng/mL.

On to “Plasmodium falciparum isolate 16 (pfmdr1 allele: 86N, 1042N, pfmdr1 copies: 1)”, for which the slope came out at 2.33 with lumefantrine [1], 2.52 in the assay with mefloquine [2], 8.17 with chloroquine [3] and 7.26 with artesunate [4]. In addition, the “EC50 of parasite growth” value with lumefantrine [5] was found to be 13.1 ng/mL; in the assay with mefloquine [6] it was 29.4 ng/mL; with chloroquine [7], 174 ng/mL; with artesunate [8] it was 1.19 ng/mL.

For the test system “Plasmodium falciparum isolate 89 (pfmdr1 allele: 86N, 1042N, pfmdr1 copies: 1)”, the slope with lumefantrine [1] turned out to be 2.41; in the assay with mefloquine [2], 2.2; with chloroquine [3], 3.82; with artesunate [4], 2.09. For the same test system, the “EC50 of parasite growth” value with lumefantrine [5] was 11.8 ng/mL; with mefloquine [6], 6.12 ng/mL; in the assay with chloroquine [7], 91.3 ng/mL; with artesunate [8] it was 0.424 ng/mL.

With “Plasmodium falciparum isolate 433 (pfmdr1 allele: 86N, 1042N, pfmdr1 copies: 1)”, the slope came out at 1.74 with lumefantrine [1], 2.2 in the assay with mefloquine [2], 3.82 with chloroquine [3] and 7.58 in the assay with artesunate [4]. For the same test system, the “EC50 of parasite growth” value with lumefantrine [5] is 12 ng/mL; with mefloquine [6] it was 40.1 ng/mL; with chloroquine [7] it was 96.2 ng/mL; with artesunate [8] it was 0.508 ng/mL.

“Plasmodium falciparum isolate 133 (pfmdr1 allele: 86N, 1042N, pfmdr1 copies: 1)”: the slope in the assay with lumefantrine [1] was determined as 2.87; with mefloquine [2], 4.52; in the assay with chloroquine [3] it was 4.59; with artesunate [4] it was 6.07. The “EC50 of parasite growth” value was determined as 56.8 ng/mL in the assay with lumefantrine [5], 42.8 ng/mL with mefloquine [6], 145 ng/mL in the assay with chloroquine [7] and 1.17 ng/mL with artesunate [8].

In the case of “Plasmodium falciparum isolate 428 (pfmdr1 allele: 86N, 1042N, pfmdr1 copies: 1)”, the slope in the assay with lumefantrine [1] stood at 2.17; with mefloquine [2], 1.98; in the assay with chloroquine [3], 2.94; in the assay with artesunate [4], 4.67. Further, the “EC50 of parasite growth” value with lumefantrine [5] was determined as 58.7 ng/mL; with mefloquine [6], 13.1 ng/mL; with chloroquine [7] it was 77.2 ng/mL; in the assay with artesunate [8] it was 0.281 ng/mL.

As for “Plasmodium falciparum isolate 394 (pfmdr1 allele: 86N, 1042N, pfmdr1 copies: 1)”, the slope with lumefantrine [1] was 2.87; in the assay with mefloquine [2] it was 3.45; with chloroquine [3], 6.83; with artesunate [4], 6.69. For the same test system, the “EC50 of parasite growth” value in the assay with lumefantrine [5] was found to be 26.7 ng/mL; with mefloquine [6], 33.9 ng/mL; with chloroquine [7], 91.7 ng/mL; in the assay with artesunate [8], 0.74 ng/mL.

For “Plasmodium falciparum isolate 293 (pfmdr1 allele: 86N, 1042N, pfmdr1 copies: 2)”, the slope with lumefantrine [1] came to 1.45; with mefloquine [2], 1.47; with chloroquine [3] it was 3.08; in the assay with artesunate [4], 3.52. Also, the “EC50 of parasite growth” value was found to be 4.02 ng/mL with lumefantrine [5], 24.2 ng/mL with mefloquine [6], 88.4 ng/mL with chloroquine [7] and 0.809 ng/mL with artesunate [8].

(Values after the supplement of paper PMC3722116.)
